# Assay results: paper PMC4336329 (PLoS ONE, 2015)
# In all, about 310,000 compounds went through this assay and about 14,000 (4.5%) showed an effect of 50% or more. Effects have a minus sign here. The list shows a part of the results.
# Target: human ether-à-go-go-related gene (hERG) potassium channel (human, UniProt Q12809)
# Assay: primary screen, population patch clamp on CHO cells stably expressing hERG
# 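Also: peak tail current of the secondary pulse compared with the same well before compound.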
# human ether-à-go-go-related gene (hERG) potassium channel, sequence (Q12809 whole entry, looked up): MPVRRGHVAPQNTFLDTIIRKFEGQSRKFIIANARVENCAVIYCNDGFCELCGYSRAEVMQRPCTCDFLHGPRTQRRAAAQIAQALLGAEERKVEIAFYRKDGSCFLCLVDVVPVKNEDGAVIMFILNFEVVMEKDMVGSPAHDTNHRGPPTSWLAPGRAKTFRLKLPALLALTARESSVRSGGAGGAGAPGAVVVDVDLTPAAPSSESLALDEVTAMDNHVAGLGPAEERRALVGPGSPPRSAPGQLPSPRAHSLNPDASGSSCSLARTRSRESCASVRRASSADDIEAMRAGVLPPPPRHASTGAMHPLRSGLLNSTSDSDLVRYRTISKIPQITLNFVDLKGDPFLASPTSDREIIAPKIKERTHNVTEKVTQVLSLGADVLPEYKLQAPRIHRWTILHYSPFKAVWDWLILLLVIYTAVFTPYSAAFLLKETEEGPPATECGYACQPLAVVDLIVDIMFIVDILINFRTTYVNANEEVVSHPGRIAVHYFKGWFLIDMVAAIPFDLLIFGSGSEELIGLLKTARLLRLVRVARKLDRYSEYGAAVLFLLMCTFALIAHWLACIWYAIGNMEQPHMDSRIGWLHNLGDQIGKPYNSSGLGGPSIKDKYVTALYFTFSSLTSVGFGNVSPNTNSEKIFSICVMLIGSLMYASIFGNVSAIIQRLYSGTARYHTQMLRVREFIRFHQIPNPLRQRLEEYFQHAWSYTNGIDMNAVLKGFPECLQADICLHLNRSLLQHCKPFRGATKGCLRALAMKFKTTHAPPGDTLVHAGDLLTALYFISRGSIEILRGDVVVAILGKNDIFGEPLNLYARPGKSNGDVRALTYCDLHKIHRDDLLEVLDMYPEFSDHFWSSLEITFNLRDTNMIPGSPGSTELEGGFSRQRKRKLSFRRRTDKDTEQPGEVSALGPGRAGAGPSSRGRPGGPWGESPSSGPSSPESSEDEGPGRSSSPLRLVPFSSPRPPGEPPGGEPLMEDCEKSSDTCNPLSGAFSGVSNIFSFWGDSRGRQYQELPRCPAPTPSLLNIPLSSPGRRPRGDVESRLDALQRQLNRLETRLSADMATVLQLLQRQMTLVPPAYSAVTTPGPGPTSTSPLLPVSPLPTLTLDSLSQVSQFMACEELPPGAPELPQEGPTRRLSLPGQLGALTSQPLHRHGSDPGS
row,SMILES,"hERG current change (%, negative = inhibition) at 10uM [%]"
1,CC1=CC(C)(C)Nc2ccc(OC(=O)CN3C(=O)c4ccccc4C3=O)cc21,15
2,NC(=O)CSc1nnc(Cc2ccc3c(c2)OCO3)n1C1CCCCC1,-2.74
3,CCOc1ccc(NC(=O)C2CCCN(S(=O)(=O)c3c(C)n[nH]c3C)C2)cc1 (centres unmarked),-4.42
4,CCC(C)NC(=O)COCc1cc(-c2ccc3c(c2)OCO3)on1 (centres unmarked),4.21
5,COc1cccc(/C=C/C(=O)OCC(=O)Nc2ccc(Cl)c(S(=O)(=O)N(C)C)c2)c1,9.85
6,O=C(NCCCCc1ccccc1)c1ccccc1,15
7,Cc1oc(-c2ccc(Cl)cc2)nc1CS(=O)CC(=O)NCc1ccccc1 (centres unmarked),-9.63
8,CCCc1nc2ccc(NC(C)=O)cc2c(=O)n1Cc1cccc(Cl)c1,-1.09
9,CCC(NC(=O)NCCCn1ccnc1)(C(F)(F)F)C(F)(F)F,8.18
10,Cc1cc(-c2ccccc2)nc(N/N=C/c2cccnc2)n1,12.4
11,Cc1ccc(-c2nn(CCC(=O)Nc3cccnc3)c(=O)c3ccccc23)cc1,-48.8
12,Cc1cc2c(c(=O)n1Cc1cccnc1)C(Cc1ccccc1)C(C#N)=C(N)O2 (centres unmarked),-40.3
13,CCCC(=O)C1=C(O)C(C(=O)OC)C(C)(C)CC1=NCc1ccccc1 (centres unmarked),0.836
14,COC(=O)CCN(C)CCC(=O)OC.Cl,8.58
15,CS(=O)(=O)n1nc(NCc2cccs2)nc1NCc1cccs1,-0.436
16,CCC(=O)NNc1cccc(Cl)n1,-4.71
17,CCc1[nH]nc2c1C(Cc1ccccc1)C(C#N)=C(N)O2 (centres unmarked),-15.8
18,Cc1ccsc1/C=N/NC(=O)C1CC(=O)N(c2ccccc2)C1 (centres unmarked),-15.4
19,Cc1ccc(C(C)C)c(OCc2ccc(C(=O)N/N=C/c3cccc(O)c3O)cc2)c1,7.65
20,Cc1nc(-c2cccc(NC(=O)c3cccs3)c2)cs1,-23.3
21,CN1CCN(c2ccc(-c3cccc(NC(=O)COc4ccc(Cl)cc4Cl)c3)nn2)CC1,6.83
22,CCCCCN1CN(S(=O)(=O)c2cccs2)c2nc3ccccc3nc21,0.435

row,SMILES,"hERG current change (%, negative = inhibition) at 10uM [%]"
1,CC(C)CS(=O)(=O)C1=NN2C(=N)/C(=C\c3ccc(OC(=O)c4ccco4)cc3)C(=O)N=C2S1,6.44
2,O=C(CC1SC(=NC2CCCCC2)NC1=O)Nc1ccccc1 (centres unmarked),9.37
3,CCOC(=O)N1CCN(Cc2ccc(OCC(O)CN3CCCCC3)cc2)CC1 (centres unmarked),15.7
4,CCOc1ccccc1NC(=S)NCc1cccn1C,32.2
5,CC(=O)N1N=C(c2cccc(NS(=O)(=O)c3ccc(C)cc3)c2)CC1c1ccco1 (centres unmarked),17
6,CCOc1ccc(NC(=O)N(C2CCCCCC2)C2CCN(C(C)=O)CC2)cc1,-5.04
7,COc1ccc(NC(=O)CCS(=O)(=O)c2ccc3c(c2)CCN3C(C)=O)cc1,2.3
8,Cc1ccc(C)c(NS(=O)(=O)c2ccc(OCC(=O)N3CCCC3)cc2)c1,-16.9
9,CCCC(=O)Nc1cccc(-c2cn3ccsc3n2)c1,-47.5
10,Cc1ccc(NC(=O)CN(C)C(=O)c2ccc(Br)o2)cc1,17.5
11,CCn1cc(C(=O)NCCCN(CC(C)C)CC(C)C)c(=O)c2cc(S(=O)(=O)N(C)C3CCCCC3)ccc21,-69.6
12,Cn1cnnc1SC1CCCCC1NS(=O)(=O)c1ccc(Cl)cc1 (centres unmarked),10.2
13,O=C(CSc1nnc(C2COc3ccccc3O2)o1)Nc1ccc(F)cc1Cl (centres unmarked),-1.21
14,O=C(Nc1ccnn1C1CCN(Cc2ccc(O)c(Cl)c2)CC1)C1CCCC1,-33
15,COc1ccc(CCN(Cc2cccs2)S(=O)(=O)c2ccc(-n3cnnn3)cc2)cc1OC,-52.5
16,c1ccc(OCc2nn3c(-c4cccnc4)nnc3s2)cc1,-29.5
17,c1ccc(NC2=NCCN2CC2CCC2)cc1,-12.1
18,Cc1ccc(S(=O)(=O)N2CCOCC2)cc1NC(=O)CNCc1cccnc1.O=C(O)C(=O)O,-7.98
19,C/C(NC(=O)c1ccccc1)=C1/C(=O)CC2C1C2(C)C (centres unmarked),2.15
20,O=C(NCc1ccc(Cl)cc1)c1cccc(NC(=O)c2ccccc2)c1,-0.3
21,Cc1ccsc1C(=O)C1CCCN(Cc2cnc(N(C)C)s2)C1 (centres unmarked),-9.23
22,Cc1ccc(-n2c(Cc3ccccc3)n[nH]c2=S)c(C)c1,11.7

row,SMILES,"hERG current change (%, negative = inhibition) at 10uM [%]"
1,Cc1ccc(CCNC(=O)C2CCC(=O)N2C(C)C)cc1 (centres unmarked),14.5
2,Cc1noc(C)c1C(=O)Nc1ccc(F)c(F)c1,25.4
3,CCN(CCn1cccn1)Cc1cn[nH]c1-c1ccc(-c2ccccc2)cc1,9.21
4,Cc1ccc(Cn2nc(C)c(NC(=O)CSc3n[nH]c(C)c3[N+](=O)[O-])c2C)cc1,-11.3
5,Cc1cc(OCCSc2nnc(-c3cccs3)n2C)ccc1Cl,-22.5
6,Cc1ccc(OCC(=O)N/N=C\c2c(C)n(C)c3ccccc23)c([N+](=O)[O-])c1,12.8
7,CCc1nn(C(C)C(=O)NCCc2ccc(OC)c(OC)c2)c(=O)c2cc3occc3n12 (centres unmarked),-5.84
8,Cc1cccc(OCC(=O)O/N=C(\N)Cc2cccs2)c1,8.58
9,O=C(COC(=O)c1cnccn1)c1ccc(C2CCCCC2)cc1,2.8
10,Cc1ccc(OCCCCn2ccnc2C)c(C)c1.O=C(O)C(=O)O,-64.1
11,CCOC(=O)Cc1csc(NC(=O)c2cccc(Cl)c2)n1,-13
12,COC(=O)c1cccc(C(=O)N2CCCC(C(=O)c3ccccc3OC)C2)c1 (centres unmarked),-20
13,CCN(CC)C(=O)CN1C(=O)C2(OCC(C)(c3ccccc3)CO2)c2ccccc21 (centres unmarked),-23.9
14,CCN(CC)S(=O)(=O)c1ccc(Cl)c(NC(=O)c2ccc(C#N)cc2)c1,-28.4
15,CC1CN(c2cc([N+](=O)[O-])ccc2Cl)CC(C)N1 (centres unmarked),-22.4
16,CCOc1cc(/C=C2/C(=O)N(c3ccccc3)N=C2C)ccc1OC(=O)c1ccco1,6.56
17,COc1cc(NC(=O)CCc2c(C)[nH]c(=O)c(C#N)c2C)cc(OC)c1,15.7
18,CCOC(=O)N1CCN(C(=O)c2ccc3c(=O)n(CCc4ccccc4)c(=S)[nH]c3c2)CC1,11.4
19,COc1ccc(N2C(=O)NC(=O)C(CCc3ccncc3)(CCc3ccncc3)C2=O)cc1,-23.6
20,CC(C)[C@H](N)C(=O)NC[C@H](CC(=O)NCC1CCC(C(=O)O)CC1)c1ccc(Cl)cc1.Cl (some centres unmarked),17.4
21,CCCCSc1nc2c(c(=O)[nH]c(=O)n2C)n1CCc1ccccc1,16.1
22,Cc1ccsc1C(=O)NCCC(c1ccccc1)c1ccccc1,14.3

row,SMILES,"hERG current change (%, negative = inhibition) at 10uM [%]"
1,O=C(O)CN1C(=O)/C(=C\c2cccc(OC(=O)c3ccco3)c2)SC1=S,0.715
2,COC(=O)c1ccc2c(=O)n(CC3CCCO3)c(SCC(=O)NCCc3ccc(S(N)(=O)=O)cc3)nc2c1 (centres unmarked),17.5
3,O=C(Nc1nc2cc3c(cc2s1)OCCO3)c1cccc(N2C(=O)CCC2=O)c1,-18.3
4,COc1cc(/C=N/NC(=O)c2ccncc2)ccc1OC(=O)c1ccco1,7.02
5,COc1ccc(CN2CCNC(=O)C2CC(=O)N(C)Cc2cc(C)no2)cc1OC (centres unmarked),8.98
6,CCCCn1c(N)c(N(CC(C)C)C(=O)CCCn2c(=O)oc3ccccc32)c(=O)[nH]c1=O,-9.71
7,COc1cccc(CNC(=O)C2(C)Oc3ccccc3NC2=O)c1 (centres unmarked),5.34
8,CSc1nc(N2CCOCC2)c2ccccc2n1,-4.05
9,CC(=O)Nc1ccc(N2C(=O)CC(N3CC(C)OC(C)C3)C2=O)cc1 (centres unmarked),11.2
10,COc1cc(/C=N/NC(=O)c2cccnc2)ccc1OC(=O)c1cc(OC)c(OC)c(OC)c1,17.3
11,O=C(CSc1nnc(-c2ccco2)o1)N1CCOCC1,-5.9
12,CN1CCN(C(=O)C2CCCN(c3ncnc4c3nc3n4CCCCC3)C2)CC1 (centres unmarked),1.36
13,Cc1cc(OCC(=O)NCc2ccccn2)cc(C)c1Br,-69.4
14,CCOc1ccc(N(C(=O)c2snc(C(N)=O)c2N)C(C(=O)NC2CCCC2)c2ccncc2)cc1 (centres unmarked),21.2
15,CCCCn1c(=N)n(CC(O)COc2cccc(C)c2)c2ccccc21.Cl (centres unmarked),-72.6
16,N#Cc1cccc(NC(=O)c2ccccc2C(=O)O)c1,2.3
17,Cc1ccc(NC(=O)c2nc[nH]c2C(=O)N2CCOCC2)c(C(=O)c2ccccc2)c1,-14.7
18,CC(=O)Nc1ccc(NC(=O)CSc2nnc(C)n2-c2ccccc2)cc1,26.1
19,Cc1ccc(NCc2ccncc2)c(Br)c1.O=C(O)C(=O)O,16.1
20,N#Cc1cc(-c2ccccc2)nnc1Oc1ccccc1Cl,7.52
